Test results reported in the supplement of paper PMC4967469.

Legend:
Assay in all cases: Viability of human cancer cell lines after 72 h of drug (GDSC screen)
[1] = compound: CC(C)[C@H](C(=O)Nc1ccc(C(=O)NO)cc1)c1ccccc1 [AR-42]; settings: top dose 5.12 µM; top dose inferred
Experimental: (§1)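 Human cancer cell lines in 384-well plates, medium with 10% serum, drug for 72 h over a 256-fold dose range (nine 2-fold or five 4-fold steps up to the top dose). Adherent lines were fixed and stained with the nucleic acid dye Syto60, suspension lines read with resazurin; signal relative to control wells, capped at 0 and 100%. One two-parameter sigmoid per drug and line, fitted in a mixed model over all curves with the slope shared within a line.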

[2] = compound: CS(=O)(=O)N1CCN(Cc2cc3nc(-c4cccc5[nH]ncc45)nc(N4CCOCC4)c3s2)CC1 [GDC0941]; settings: top dose 4 µM; screen: GDSC drug entry 1527; top dose inferred
Experimental: as §1

[3] = compound: Cc1ccc(Nc2nccc(N(C)c3ccc4c(C)n(C)nc4c3)n2)cc1S(N)(=O)=O [Pazopanib]; settings: top dose 8 µM
Experimental: as §1

[4] = compound: Cn1cc(C2=C(c3ccc(Cl)cc3Cl)C(=O)NC2=O)c2ccccc21 [SB 216763]; settings: top dose 10 µM; top dose inferred
Experimental: as §1

[5] = compound: C[C@]12O[C@H](C[C@]1(O)CO)n1c3ccccc3c3c4c(c5c6ccccc6n2c5c31)CNC4=O [CEP-701]; settings: top dose 2 µM; top dose inferred
Experimental: as §1

| Cell Line | AUC [1] | pIC50 [1] | AUC [2] | pIC50 [2] | AUC [3] | pIC50 [3] | AUC [4] | pIC50 [4] | AUC [5] | pIC50 [5] |
| --- | --- | --- | --- | --- | --- | --- | --- | --- | --- | --- |
| 22RV1 (prostate, adherent) | 0.408 | 6.77 | 0.749 | 5.80 | 0.958 | < 5.10 | 0.98 | < 5.00 | 0.782 | 5.97 |
| 42-MG-BA (glioma, adherent) | 0.683 | 5.97 | 0.743 | 5.88 | 0.559 | 6.14 | 0.98 | < 5.00 | 0.626 | 6.54 |
| 451Lu (melanoma, adherent) | 0.634 | 6.13 | 0.987 | < 5.40 | 0.972 | < 5.10 | 0.987 | < 5.00 | 0.434 | 7.08 |
| 639-V (bladder, adherent) | 0.837 | 5.56 | 0.928 | < 5.40 | 0.985 | < 5.10 | 0.962 | < 5.00 | 0.916 | < 5.70 |
| 5637 (bladder, adherent) | 0.368 | 6.84 | 0.891 | 5.41 | 0.977 | < 5.10 | 0.933 | < 5.00 | 0.407 | 7.15 |
| 8305C (thyroid, adherent) | 0.958 | < 5.29 | 0.744 | 5.80 | 0.933 | < 5.10 | 0.977 | < 5.00 | 0.694 | 6.28 |
| A431 (skin, adherent) | 0.428 | 6.69 | 0.842 | 5.58 | 0.879 | 5.12 | 0.975 | < 5.00 | 0.646 | 6.51 |
| A2780 (ovary, semi-adherent) | 0.516 | 6.45 | 0.808 | 5.67 | 0.862 | 5.14 | 0.985 | < 5.00 | 0.521 | 6.84 |
| ABC-1 (lung adenocarcinoma, adherent) | 0.548 | 6.35 | 0.676 | 6.06 | 0.966 | < 5.10 | 0.983 | < 5.00 | 0.931 | < 5.70 |
| AN3-CA (endometrium, adherent) | 0.722 | 5.84 | 0.518 | 6.55 | 0.203 | 7.23 | 0.975 | < 5.00 | 0.784 | 6.03 |
| AsPC-1 (pancreas, adherent) | 0.654 | 5.94 | 0.618 | 6.18 | 0.932 | < 5.10 | 0.963 | < 5.00 | 0.788 | 5.77 |
| BHT-101 (thyroid, adherent) | 0.404 | 6.76 | 0.556 | 6.45 | 0.975 | < 5.10 | 0.896 | < 5.00 | 0.71 | 6.30 |
| BICR10 (head and neck, adherent) | 0.923 | < 5.29 | 0.639 | 6.19 | 0.877 | < 5.10 | 0.952 | < 5.00 | 0.525 | 6.83 |
| BICR78 (head and neck, adherent) | 0.508 | 6.47 | 0.641 | 6.18 | 0.982 | < 5.10 | 0.978 | < 5.00 | 0.454 | 7.04 |
| BT-20 (breast, adherent) | 0.792 | 5.53 | 0.847 | < 5.40 | 0.95 | < 5.10 | 0.984 | < 5.00 | 0.827 | 5.79 |
| BT-483 (breast, adherent) | 0.975 | < 5.29 | 0.87 | < 5.40 | 0.973 | < 5.10 | 0.978 | < 5.00 | 0.915 | < 5.70 |
| BxPC-3 (pancreas, adherent) | 0.639 | 6.09 | 0.775 | 5.75 | 0.953 | < 5.10 | 0.937 | < 5.00 | 0.749 | 6.14 |
| C3A (liver, adherent) | 0.737 | 5.80 | 0.891 | < 5.40 | 0.878 | < 5.10 | 0.983 | < 5.00 | 0.849 | 5.80 |
| C32 (melanoma, adherent) | 0.966 | < 5.29 | 0.876 | < 5.40 | 0.984 | < 5.10 | 0.952 | < 5.00 | 0.686 | 6.36 |
| C-33-A (cervix, adherent) | 0.324 | 6.99 | 0.859 | 5.47 | 0.916 | < 5.10 | 0.986 | < 5.00 | 0.732 | 6.24 |
| CAKI-1 (kidney, adherent) | 0.511 | 6.46 | 0.732 | 5.79 | 0.819 | 5.10 | 0.961 | < 5.00 | 0.532 | 6.80 |
| CAL-12T (non-small cell lung carcinoma, adherent) | 0.662 | 6.02 | 0.762 | 5.80 | 0.884 | < 5.10 | 0.925 | < 5.00 | 0.781 | 6.03 |
| CAL-27 (head and neck, adherent) | 0.523 | 6.43 | 0.589 | 6.36 | 0.985 | < 5.10 | 0.844 | 5.13 | 0.591 | 6.65 |
| CAL-29 (bladder, adherent) | 0.607 | 6.19 | 0.641 | 6.20 | 0.985 | < 5.10 | 0.938 | < 5.00 | 0.793 | 6.00 |

pIC50: −log10 of the molar value. Lines with a small IC50 respond at low doses; fits outside the tested doses are given as limits. AUC, from the same fit, is the share of area under the viability curve across the 256-fold dose range: 1 means no effect, lower means more sensitive. For part of these data: Any top dose called inferred is not printed in the source and was worked back from the curve model. For part of these data: Drugs with an entry number were screened twice under separate entries, and the two screens often disagree.
